Assay results from paper PMC11912937.
No constants are given. Whether binding was seen depends on the method and setting. For part of these data: In cells and extracts the contact can be indirect. Some binding calls cover weakened binding; strength is not graded here.

Chains of the proteins cited; added tags and fusions are not shown. Lines headed by an entry give the natural chain unless they say otherwise; changes in a name come on top. Residues count along the entry.
UniProt Q96BT3: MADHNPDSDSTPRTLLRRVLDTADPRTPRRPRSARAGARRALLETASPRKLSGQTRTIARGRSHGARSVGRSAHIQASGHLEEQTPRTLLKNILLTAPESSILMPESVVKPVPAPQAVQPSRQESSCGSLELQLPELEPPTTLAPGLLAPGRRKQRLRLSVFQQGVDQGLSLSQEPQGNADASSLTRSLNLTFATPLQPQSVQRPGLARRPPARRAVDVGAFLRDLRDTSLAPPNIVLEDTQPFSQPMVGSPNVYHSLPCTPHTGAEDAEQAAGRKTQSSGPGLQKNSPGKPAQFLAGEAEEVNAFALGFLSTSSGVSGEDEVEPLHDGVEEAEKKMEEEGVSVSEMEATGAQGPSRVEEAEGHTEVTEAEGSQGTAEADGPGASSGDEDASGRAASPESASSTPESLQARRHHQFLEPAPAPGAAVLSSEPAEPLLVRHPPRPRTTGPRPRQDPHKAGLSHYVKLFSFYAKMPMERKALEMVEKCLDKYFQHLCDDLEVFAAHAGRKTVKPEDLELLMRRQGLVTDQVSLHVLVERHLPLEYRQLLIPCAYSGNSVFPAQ
UniProt Q5EE01: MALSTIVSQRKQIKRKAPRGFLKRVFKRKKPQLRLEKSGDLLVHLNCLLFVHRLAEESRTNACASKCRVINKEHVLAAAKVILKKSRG
UniProt Q9BU64: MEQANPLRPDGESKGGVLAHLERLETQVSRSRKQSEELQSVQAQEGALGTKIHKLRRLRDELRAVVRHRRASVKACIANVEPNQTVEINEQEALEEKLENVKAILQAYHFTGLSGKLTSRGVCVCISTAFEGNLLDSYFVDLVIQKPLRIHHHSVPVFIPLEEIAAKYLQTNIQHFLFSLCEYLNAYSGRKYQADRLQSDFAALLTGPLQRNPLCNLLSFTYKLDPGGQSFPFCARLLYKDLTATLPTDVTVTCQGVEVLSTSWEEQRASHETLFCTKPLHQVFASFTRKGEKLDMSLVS
UniProt Q6IPU0: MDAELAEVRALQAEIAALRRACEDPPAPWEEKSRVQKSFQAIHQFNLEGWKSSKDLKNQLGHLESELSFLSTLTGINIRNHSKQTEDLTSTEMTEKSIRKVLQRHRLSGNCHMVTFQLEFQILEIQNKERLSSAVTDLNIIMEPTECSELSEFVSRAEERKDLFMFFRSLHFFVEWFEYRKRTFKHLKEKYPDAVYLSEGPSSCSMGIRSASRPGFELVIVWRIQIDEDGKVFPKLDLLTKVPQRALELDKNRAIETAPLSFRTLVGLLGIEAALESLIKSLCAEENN
UniProt Q7L2Z9: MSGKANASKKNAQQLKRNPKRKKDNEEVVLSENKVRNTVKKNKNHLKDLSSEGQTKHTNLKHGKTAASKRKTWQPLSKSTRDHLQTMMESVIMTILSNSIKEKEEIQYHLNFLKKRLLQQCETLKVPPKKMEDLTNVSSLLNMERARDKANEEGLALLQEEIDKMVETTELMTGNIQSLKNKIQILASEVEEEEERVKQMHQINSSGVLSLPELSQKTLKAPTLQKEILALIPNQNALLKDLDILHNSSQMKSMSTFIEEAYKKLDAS
UniProt Q71F23: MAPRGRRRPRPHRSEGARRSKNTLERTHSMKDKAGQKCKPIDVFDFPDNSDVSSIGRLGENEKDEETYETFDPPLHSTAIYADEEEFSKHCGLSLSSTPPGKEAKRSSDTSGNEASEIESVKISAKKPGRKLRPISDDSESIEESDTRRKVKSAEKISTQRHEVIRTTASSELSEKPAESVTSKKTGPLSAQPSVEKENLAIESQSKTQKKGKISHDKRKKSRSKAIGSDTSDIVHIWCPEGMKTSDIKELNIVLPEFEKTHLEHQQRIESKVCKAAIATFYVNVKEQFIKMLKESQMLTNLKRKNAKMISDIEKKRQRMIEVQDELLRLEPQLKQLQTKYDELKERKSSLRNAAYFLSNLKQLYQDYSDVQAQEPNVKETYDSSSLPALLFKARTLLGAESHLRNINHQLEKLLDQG
UniProt Q13352: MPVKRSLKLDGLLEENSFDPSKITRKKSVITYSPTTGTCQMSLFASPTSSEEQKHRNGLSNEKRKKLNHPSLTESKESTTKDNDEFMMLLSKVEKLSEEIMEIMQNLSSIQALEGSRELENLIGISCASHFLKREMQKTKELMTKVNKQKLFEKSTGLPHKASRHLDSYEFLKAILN
UniProt Q9Y5B9, residues 644-988: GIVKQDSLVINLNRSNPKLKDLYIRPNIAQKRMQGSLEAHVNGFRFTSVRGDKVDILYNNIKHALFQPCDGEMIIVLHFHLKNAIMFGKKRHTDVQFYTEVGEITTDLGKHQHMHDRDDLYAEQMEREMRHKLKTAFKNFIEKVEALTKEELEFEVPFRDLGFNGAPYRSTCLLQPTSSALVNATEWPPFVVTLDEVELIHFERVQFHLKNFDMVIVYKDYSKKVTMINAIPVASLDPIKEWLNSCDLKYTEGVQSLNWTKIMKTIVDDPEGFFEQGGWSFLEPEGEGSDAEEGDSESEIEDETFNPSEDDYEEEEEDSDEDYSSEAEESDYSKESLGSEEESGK
UniProt Q08945, residues 197-514: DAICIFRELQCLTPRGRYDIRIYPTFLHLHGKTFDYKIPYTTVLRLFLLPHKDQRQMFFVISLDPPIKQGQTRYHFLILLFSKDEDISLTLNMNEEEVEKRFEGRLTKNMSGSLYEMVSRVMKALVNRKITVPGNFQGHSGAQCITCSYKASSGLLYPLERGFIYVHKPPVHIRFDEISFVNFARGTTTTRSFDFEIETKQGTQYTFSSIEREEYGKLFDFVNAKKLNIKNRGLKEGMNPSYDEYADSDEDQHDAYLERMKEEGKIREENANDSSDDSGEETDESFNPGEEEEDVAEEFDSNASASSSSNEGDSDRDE

Key:
[1] = target: ^MBPCENP-T/CENP-W (human) (UniProt Q96BT3+Q5EE01); experiment: pull-down; amylose resin, ^MBPCENP-T/CENP-W as bait, FACT constructs as preys; 3 µM each; 20 mM Hepes pH 6.8, 300 mM NaCl, 2.5% glycerol, 1 mM TCEP, 0.01% Tween; 4°C; both purified
[2] = target: ^GSTCENP-OPQUR (CENP-OPQUR with CENP-U fused to an N-terminal GST) (human) (UniProt Q9BU64+Q6IPU0+Q7L2Z9+Q71F23+Q13352); experiment: pull-down; glutathione-agarose, CENP-OPQUR with GST on CENP-U as bait, FACT constructs as preys; 3 µM each; 20 mM Hepes pH 6.8, 300 mM NaCl, 2.5% glycerol, 1 mM TCEP, 0.01% Tween; 4°C; both purified
[3] = target: ^EGFPCENP-U^115-C (human) (UniProt Q71F23); experiment: co-IP; GFP-Trap magnetic agarose, lysates (7 mg/ml) of STLC-synchronized DLD-1 cells harvested by mitotic shake off, Benzonase in the lysis buffer (75 mM Hepes pH 7.5, 150 mM KCl, 0.075% NP-40), 3 h at 4°C; western blot for GFP, SSRP1, PLK1
^EGFPCENP-U^fl (human) = ^EGFPCENP-U^fl (human) (UniProt Q71F23); experiment: as above

binding [1] | binding [2] | binding [3] | binding (^EGFPCENP-U^fl (human)) | Substance
binds | – | – | – | FACT^trunc (SPT16^508–988/SSRP1^1–514) (from UniProt Q9Y5B9 508-988; Q08945 1-514) (complex)
binds | binds weakly | – | – | SPT16^Mid-AID (SPT16^644–988) (from UniProt Q9Y5B9 644-988) (domain or fragment)
binds weakly | – | – | – | SSRP1^Mid-AID (SSRP1^197–514) (from UniProt Q08945 197-514) (domain or fragment)
– | – | no binding | binds | endogenous FACT in DLD-1 cells (detected by SSRP1 blot) (from UniProt Q08945 1-709; Q9Y5B9 1-1047) (complex)
